Test results taken from patent EP0519976B1, “NEUTROPHIL STIMULATING PEPTIDES” (PEPTIDE TECHNOLOGY LTD, priority 1990, dated 1997).
Entries after “also recorded” stand apart in the source; their conditions may differ. At least one peptide structure holds a part that was inferred or is arguable (an end, a ring closure or a residue). Some compounds share one wording; it may come from a single statement. Where a SMILES comes first, the peptide text is derived from it. Where no end group is shown, it is not given here. The star is where a group is joined. Acm = CC(=O)NC*

Experiments:
[1] = test system: Purified human neutrophils; assay: Lucigenin dependent chemiluminescence assay (neutrophil respiratory burst / priming for F-met-leu-phe response); assay type: cell-based; settings: for lucigenin dependent chemiluminescence, peak of response: 20 min pretreatment, then f-met-leu-phe; for lucigenin dependent chemiluminescence: Table 3 repeat
neutrophils [2] = assay: Neutrophil degranulation: β-glucuronidase release (azurophilic granules); settings: 100µg/10^6 cells, CytoB
neutrophils [3] = assay: Neutrophil random migration out of wells in agarose; assay type: cell-based; settings: for Inhibition of Migration: negative = stimulation; for effect on migration of neutrophils (in words): pre-treated with peptide or TNF, TNF at 100 units/10^6 cells
neutrophils [4] = assay: Neutrophil degranulation: Vitamin B12 binding protein release (specific granules); assay type: cell-based; settings: 100µg/10^6 cells, CytoB
neutrophils [5] = assay: Superoxide formation by cytochrome reduction assay; assay type: cell-based
[6] = 10 µg/10^6 cells, peptide alone
[7] = 100 µg/10^6 cells, peptide alone

Compound: CC[C@H](C)[C@H](NC(=O)[C@H](C)NC(=O)[C@H](CO)NC(=O)[C@@H](N)CC(C)C)C(=O)N[C@@H](CCCCN)C(=O)N[C@@H](CO)C(=O)N1CCC[C@H]1C(=O)N[C@@H](CSCNC(C)=O)C(=O)N[C@@H](CCC(N)=O)C(=O)N[C@@H](CCCNC(=N)N)C(=O)N[C@@H](CCC(=O)O)C(=O)N[C@H](C(=O)N1CCC[C@H]1C(=O)N[C@@H](CCC(=O)O)C(=O)NCC(=O)N[C@@H](C)C(=O)O)[C@@H](C)O [peptide 303, L S A I K S P C Q R E T P E G A] (H-LSAIKSPC(Acm)QRETPEGA-OH)
- lucigenin dependent chemiluminescence, peak of response ([1]; 1 µg/10^6 cells): 0.23 mV
- lucigenin dependent chemiluminescence, peak of response ([1]; 10 µg/10^6 cells): 0.17 mV
- lucigenin dependent chemiluminescence, peak of response ([1]; 100 µg/10^6 cells): 0.22 mV

Compound: CC[C@H](C)[C@H](NC(=O)[C@H](CCCNC(=N)N)NC(=O)[C@H](CO)NC(=O)[C@@H](NC(=O)[C@@H](NC(=O)[C@H](Cc1c[nH]cn1)NC(=O)[C@@H](NC(=O)[C@H](CC(C)C)NC(=O)[C@H](CC(C)C)NC(=O)[C@@H](NC(=O)[C@H](Cc1c[nH]cn1)NC(=O)[C@@H](NC(=O)[C@H](CO)NC(=O)[C@@H]1CCCN1C(=O)[C@H](CSCNC(C)=O)NC(=O)CNC(=O)[C@H](CCC(N)=O)NC(=O)CNC(=O)[C@H](CCCCN)NC(=O)[C@H](Cc1ccccc1)NC(=O)[C@@H](N)CC(C)C)[C@@H](C)O)C(C)C)[C@@H](C)O)[C@@H](C)O)[C@@H](C)CC)C(=O)O [peptide 304, LFKGQGCPSTHVLLTHTISRI] (H-LFKGQGC(Acm)PSTHVLLTHTISRI-OH)
- β-glucuronidase release (%) (neutrophils [2]; + fMLP, Exp. 1): 26.95%
- β-glucuronidase release (%) (neutrophils [2]; + fMLP, Exp. 2): 36.43%
- β-glucuronidase release (%) (neutrophils [2]; + fMLP, Exp. 3): 35.34%
- β-glucuronidase release (%) (neutrophils [2]; + fMLP, fourth column (Exp.)): 36.65%
- β-glucuronidase release (%) (neutrophils [2]; peptide alone, Exp. 1): 3.63%
- β-glucuronidase release (%) (neutrophils [2]; peptide alone, Exp. 2): 3.14%
- β-glucuronidase release (%) (neutrophils [2]; peptide alone, Exp. 3): 2.52%
- β-glucuronidase release (%) (neutrophils [2]; peptide alone, fourth column (Exp.)): 9.82%
- priming of human neutrophils for the respiratory burst associated with f-met-leu-phe treatment (in words) [1]: found to prime human neutrophils
- lucigenin dependent chemiluminescence, peak of response ([1]; 1 µg/10^6 cells): 0.18 mV
- lucigenin dependent chemiluminescence, peak of response ([1]; 10 µg/10^6 cells): 0.43 mV
- lucigenin dependent chemiluminescence, peak of response ([1]; 100 µg/10^6 cells): 2.56 mV
- lucigenin dependent chemiluminescence, peak of response ([1]; 500 µg/10^6 cells): 2.76 mV
- lucigenin dependent chemiluminescence ([1]; 10 µg/10^6 cells, + fMLP): 0.91 mV
- lucigenin dependent chemiluminescence [1, 6]: 0.36 mV
- lucigenin dependent chemiluminescence ([1]; 100 µg/10^6 cells, + fMLP): 6.97 mV
- lucigenin dependent chemiluminescence [1, 7]: 0.64 mV
- Inhibition of Migration (neutrophils [3]; 10 µg/10^6 cells): -43%
- Inhibition of Migration (neutrophils [3]; column head 0 µg/10^6 cells): -16%
- effect on migration of neutrophils (in words) (neutrophils [3]): chemokinetic
- Vitamin B12 Binding Protein (neutrophils [4]; + fMLP, Exp. 1): 43.76
- Vitamin B12 Binding Protein (neutrophils [4]; + fMLP, Exp. 2): 35.60
- Vitamin B12 Binding Protein (neutrophils [4]; + fMLP, Exp. 3): 59.15
- Vitamin B12 Binding Protein (neutrophils [4]; + fMLP, Exp. 4): 37.12
- Vitamin B12 Binding Protein (neutrophils [4]; peptide alone, Exp. 1): 11.40
- Vitamin B12 Binding Protein (neutrophils [4]; peptide alone, Exp. 2): 10.82
- Vitamin B12 Binding Protein (neutrophils [4]; peptide alone, Exp. 3): 13.06
- Vitamin B12 Binding Protein (neutrophils [4]; peptide alone, Exp. 4): 8.42

Compound: AEGQLQWLNRRANALLANG [peptide 307, A E G Q L Q W L N R R A N A L L A N G]
- lucigenin dependent chemiluminescence, peak of response ([1]; 1 µg/10^6 cells): 0.35 mV
- lucigenin dependent chemiluminescence, peak of response ([1]; 10 µg/10^6 cells): 0.37 mV
- lucigenin dependent chemiluminescence, peak of response ([1]; 100 µg/10^6 cells): 0.42 mV

Compound: AKPWYEPIYL [peptide 275, A K P W Y E P I Y L]
- lucigenin dependent chemiluminescence, peak of response ([1]; 1 µg/10^6 cells): 0.99 mV
- lucigenin dependent chemiluminescence, peak of response ([1]; 10 µg/10^6 cells): 0.69 mV
- lucigenin dependent chemiluminescence, peak of response ([1]; 100 µg/10^6 cells): 0.43 mV
- lucigenin dependent chemiluminescence, peak of response ([1]; 500 µg/10^6 cells): 0.80 mV

Compound: AVSYQTKVNLL [Peptide 396, A V S Y Q T K V N L L]
- Chemiluminescence ([1]; Table 4, 100 µg peptide): 0.70 mV

Compound: HVLLTHTISRIAVSYQTKVNLL [peptide 309, HVLLTHTISRIAVSYQTKVNLL]
- priming of human neutrophils for the respiratory burst associated with f-met-leu-phe treatment (in words) [1]: found to prime human neutrophils
- lucigenin dependent chemiluminescence, peak of response ([1]; 1 µg/10^6 cells): 0.38 mV
- lucigenin dependent chemiluminescence, peak of response ([1]; 10 µg/10^6 cells): 0.98 mV
- Chemiluminescence ([1]; 100µg peptide + fMLP, Exp. 1): 27.44 mV
- Chemiluminescence ([1]; 100µg peptide + fMLP, Exp. 2): 22.77 mV
- Chemiluminescence ([1]; 100µg peptide + fMLP, Exp. 3): 6.69 mV
- Chemiluminescence ([1]; 100µg peptide alone, Exp. 1): 5.98 mV
- Chemiluminescence ([1]; 100µg peptide alone, Exp. 2): 6.68 mV
- Chemiluminescence ([1]; 100µg peptide alone, Exp. 3): 1.24 mV
- lucigenin dependent chemiluminescence, peak of response ([1]; 100 µg/10^6 cells): 13.44 mV
- lucigenin dependent chemiluminescence ([1]; 10 µg/10^6 cells, + fMLP): 2.46 mV
- lucigenin dependent chemiluminescence [1, 6]: 0.31 mV
- lucigenin dependent chemiluminescence ([1]; 100 µg/10^6 cells, + fMLP): 12.84 mV
- lucigenin dependent chemiluminescence [1, 7]: 0.69 mV
- Chemiluminescence ([1]; Table 4, 100 µg peptide): 4.70 mV
- Inhibition of Migration (neutrophils [3]; 10 µg/10^6 cells): 0%
- Inhibition of Migration (neutrophils [3]; 100 µg/10^6 cells): 100%
- Inhibition of Migration (neutrophils [3]; column head 0 µg/10^6 cells): 0%
- effect on migration of neutrophils (in words) (neutrophils [3]): potent migration inhibitors
- superoxide formation (neutrophils [5]; 10 µg/5 x 10^5 cells, + fMLP): 3.87 n moles of O2/5x10^5 cells
- superoxide formation (neutrophils [5]; 10 µg/5 x 10^5 cells, peptide alone): 0.62 n moles of O2/5x10^5 cells
- superoxide formation (neutrophils [5]; 100 µg/5 x 10^5 cells, + fMLP): 5.14 n moles of O2/5x10^5 cells
- superoxide formation (neutrophils [5]; 100 µg/5 x 10^5 cells, peptide alone): 2.30 n moles of O2/5x10^5 cells

Compound: LRDNQLVVPSEGLYLI [peptide 302, L R D N Q L V V P S E G L Y L I]
- lucigenin dependent chemiluminescence, peak of response ([1]; 1 µg/10^6 cells): 0.16 mV
- lucigenin dependent chemiluminescence, peak of response ([1]; 10 µg/10^6 cells): 0.18 mV
- lucigenin dependent chemiluminescence, peak of response ([1]; 100 µg/10^6 cells): 0.29 mV

Compound: LSAEINRPDYLDFAESGQV [peptide 305, L S A E I N R P D Y L D F A E S G Q V]
- lucigenin dependent chemiluminescence, peak of response ([1]; 1 µg/10^6 cells): 0.27 mV
- lucigenin dependent chemiluminescence, peak of response ([1]; 10 µg/10^6 cells): 0.36 mV
- lucigenin dependent chemiluminescence, peak of response ([1]; 100 µg/10^6 cells): 0.24 mV

Compound: LTHTISRIA [Peptide 393, L T H T I S R I A]
- Chemiluminescence ([1]; Table 4, 100 µg peptide): 0.31 mV

Compound: PSTHVLLTHTI [Peptide 395, P S T H V L L T H T I]
- Chemiluminescence ([1]; 1µg peptide + fMLP, Exp. 1): 3.36 mV
- Chemiluminescence ([1]; 1µg peptide + fMLP, Exp. 2): 4.55 mV
- Chemiluminescence ([1]; 1µg peptide + fMLP, Exp. 3): 0.29 mV
- Chemiluminescence ([1]; 1µg peptide alone, Exp. 1): 3.25 mV
- Chemiluminescence ([1]; 1µg peptide alone, Exp. 2): 0.89 mV
- Chemiluminescence ([1]; 1µg peptide alone, Exp. 3): 0.03 mV
- Chemiluminescence ([1]; 10µg peptide + fMLP, Exp. 1): 7.31 mV
- Chemiluminescence ([1]; 10µg peptide + fMLP, Exp. 2): 9.10 mV
- Chemiluminescence ([1]; 10µg peptide + fMLP, Exp. 3): 2.34 mV
- Chemiluminescence ([1]; 10µg peptide alone, Exp. 1): 4.92 mV
- Chemiluminescence ([1]; 10µg peptide alone, Exp. 2): 3.97 mV
- Chemiluminescence ([1]; 10µg peptide alone, Exp. 3): 0.64 mV
- Chemiluminescence ([1]; 50µg peptide + fMLP, Exp. 1): 12.58 mV
- Chemiluminescence ([1]; 50µg peptide + fMLP, Exp. 2): 22.09 mV
- Chemiluminescence ([1]; 50µg peptide alone, Exp. 1): 8.01 mV
- Chemiluminescence ([1]; 50µg peptide alone, Exp. 2): 10.81 mV
- Chemiluminescence ([1]; 100µg peptide + fMLP, Exp. 1): 5.29 mV
- Chemiluminescence ([1]; 100µg peptide + fMLP, Exp. 2): 18.10 mV
- Chemiluminescence ([1]; 100µg peptide + fMLP, Exp. 3): 10.59 mV
- Chemiluminescence ([1]; 100µg peptide alone, Exp. 1): 2.36 mV
- Chemiluminescence ([1]; 100µg peptide alone, Exp. 2): 19.14 mV
- Chemiluminescence ([1]; 100µg peptide alone, Exp. 3): 5.26 mV
- Chemiluminescence ([1]; Table 4, 100 µg peptide): 5.32 mV
- stimulation of the neutrophil respiratory burst (in words) ([1]; Tables 4 and 5): able to stimulate the neutrophil respiratory burst; also recorded: dose dependent

Compound: SRIAVSYQTKVNLL [Peptide 394, S R I A V S Y Q T K V N L L]
- Chemiluminescence ([1]; Table 4, 100 µg peptide): 0.33 mV

Compound: TISRIAVSYQT [peptide 323, T I S R I A V S Y Q T]
- priming of human neutrophils for the respiratory burst associated with f-met-leu-phe treatment (in words) [1]: not found to be capable of priming neutrophils
- lucigenin dependent chemiluminescence, peak of response ([1]; 1 µg/10^6 cells): 0.23 mV
- lucigenin dependent chemiluminescence, peak of response ([1]; 10 µg/10^6 cells): 0.17 mV
- lucigenin dependent chemiluminescence, peak of response ([1]; 100 µg/10^6 cells): 0.47 mV

Compound: VAHVVANPQAEGQL [peptide 306, V A H V V A N P Q A E G Q L]
- lucigenin dependent chemiluminescence, peak of response ([1]; 1 µg/10^6 cells): 0.27 mV
- lucigenin dependent chemiluminescence, peak of response ([1]; 10 µg/10^6 cells): 0.35 mV
- lucigenin dependent chemiluminescence, peak of response ([1]; 100 µg/10^6 cells): 0.23 mV

Compound: VRSSSRTPSDKPVAHVVA [peptide 301, V R S S S R T P S D K P V A H V V A]
- lucigenin dependent chemiluminescence, peak of response ([1]; 1 µg/10^6 cells): 0.93 mV
- lucigenin dependent chemiluminescence, peak of response ([1]; 10 µg/10^6 cells): 0.74 mV
- lucigenin dependent chemiluminescence, peak of response ([1]; 100 µg/10^6 cells): 0.55 mV
- lucigenin dependent chemiluminescence, peak of response ([1]; 500 µg/10^6 cells): 1.10 mV
